{"source": "patent US20170304288A1", "about": "“Formulations of Methionine Aminopeptidase Inhibitors for Treating Infectious Diseases” (Texas Southern University, priority 2013, published 2017)", "tested_on": "C. elegans", "assay": "Toxicity in non-infected C. elegans", "settings": "4×10^−3 μg/mL to 4 μg/mL", "data": [{"smiles": "Oc1c(Br)cc(Cl)c2cccnc12", "note": "[Compound 5, 7-bromo-5-chloroquinolin-8-ol]", "values": [{"measurement": "mortality of non-infected animals", "value": "≤ 40", "unit": "%"}]}]}
